B1: hisA L46A (protein)
chain: MIIPALDLIDGTVVRLHQGDYGKQRDYGNDPLPRLQDYAAQGAEVAHLVDLTGAKDPAKRQIPLIKTLVAGVNVPVQVGGGVRSEEDVAALLEAGVARVVVGSTAVKSQDMVKGWFERFGADALVLALDVRIDEQGNKQVAVSGWQENSGVSLEQLVETYLPVGLKHVLCTDISRDGTLAGSNVSLYEEVCARYPQVAFQSSGGIGDIDDVAALRGTGVRGVIVGRALLEGKFTVKEAIACWQNA
B2: hemL I201P (protein)
chain: MSKSENLYSAARELIPGGVNSPVRAFTGVGGTPLFIEKADGAYLYDVDGKAYIDYVGSWGPMVLGHNHPAIRNAVIEAAERGLSFGAPTEMEVKMAQLVTELVPTMDMVRMVNSGTEATMSAIRLARGFTGRDKIIKFEGCYHGHADCLLVKAGSGALTLGQPNSPGVPADFAKYTLTCTYNDLASVRAAFEQYPQEIACPIVEPVAGNMNCVPPLPEFLPGLRALCDEFGALLIIDEVMTGFRVALAGAQDYYGVVPDLTCLGKIIGGGMPVGAFGGRRDVMDALAPTGPVYQAGTLSGNPIAMAAGFACLNEVAQPGVHETLDELTTRLAEGLLEAAEEAGIPLVVNHVGGMFGIFFTDAESVTCYQDVMACDVERFKRFFHMMLDEGVYLAPSAFEAGFMSVAHSMEDINNTIDAARRVFAKL
B3: hemL V203D (protein)
chain: B2 chain with P201I, V203D
B4: hemL V203A (protein)
chain: B2 chain with P201I, V203A
B5: hemL V203P (protein)
chain: B2 chain with P201I, V203P
B6: hemL V203Q (protein)
chain: B2 chain with P201I, V203Q

Substitutions are numbered along the chain they refer to. In names and notes the source's numbering stands. ± gives the standard deviation of the averaged measurements. Laboratory Escherichia coli strains with one amino-acid change in an essential protein, pooled on minimal glucose agar with carbenicillin or gentamicin at twice the control MIC (plus kanamycin and chloramphenicol for the plasmids), 48 h. Fold change of barcode share against drug-free plates; higher = less susceptible. Active = above 20 in both replicates (the paper's putatively resistant). '<' = one read or none on drug, '>' = one read or none on a drug-free plate. Shares are relative, so most strains fall below 1 when a few take over. Listed are strains with at least 15 reads on both drug-free plates, and hits; most hits rest on fewer reference reads. Replicate rank correlation about 0.5. Edits are read from barcodes. Bounds are passed on as bounds.

The results in this text go back to the supplement of paper PMC11876631.

The target of the first data set is Escherichia coli (laboratory strain). The data set is described as follows: barcode share on antibiotic plates over drug-free plates; higher = less susceptible. The settings on record: antibiotic: carbenicillin; 2× MIC (3.1 µg/mL). The procedure: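 A pool of E. coli strains, each edited to carry one amino-acid change in an essential protein, was grown for 48 h on minimal glucose agar with or without antibiotic; strain barcodes were sequenced; mean of two replicates.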
For the protein B1, the “fold change of barcode share” value was determined as 0.457 ± 0.077.
As for B2, the “fold change of barcode share” value is 0.35 ± 0.3.
The same measure, in the same setting: then B3, with 0.735 ± 0.14.
Regarding B4, the “fold change of barcode share” value turned out to be 0.347 ± 0.1.
In the case of B5, the “fold change of barcode share” value came to 8.57 ± 4.2.
As to B6, the “fold change of barcode share” value stood at 0.408 ± 0.067.

The data set is the same for the next values; noted with them: antibiotic: gentamicin; 2× MIC (MIC 0.45 µg/mL).
As for B1, the “fold change of barcode share” value worked out at 0.00721 ± 0.00054.
Turning to B2, the “fold change of barcode share” value is below 0.0137.
B3: the “fold change of barcode share” value was 0.0329 ± 0.017.
Turning to B4, the “fold change of barcode share” value was determined as 0.0241 ± 0.008.
Regarding B6, the “fold change of barcode share” value stood at 0.0376 ± 0.0091.
